About 150 (0.041%) of roughly 370,000 compounds were called active. Inconclusive results, whose numbers are uncertain, are shown with a selection of clear calls. Calls come from the whole dose curve; as a rule, active = well fitted inhibition curve with a large enough effect; inconclusive = small, poorly fitted or top-dose-only effect; inactive = flat fitted curve, though single readings scatter. No potency is given beside an inconclusive call; the fits are too rough.
target: Beta-lactamase (Escherichia coli (strain K12)) (UniProt P00811); assay: qHTS Inhibitors of AmpC Beta-Lactamase (assay with detergent); conditions: AmpC hydrolysis of nitrocefin, absorbance 480 nm, 0.01% Triton; series mostly up to 114 µM; note: nearly all actives have a fitted effect of over 25% in size
UniProt P00811, sequence (P00811 whole entry, looked up): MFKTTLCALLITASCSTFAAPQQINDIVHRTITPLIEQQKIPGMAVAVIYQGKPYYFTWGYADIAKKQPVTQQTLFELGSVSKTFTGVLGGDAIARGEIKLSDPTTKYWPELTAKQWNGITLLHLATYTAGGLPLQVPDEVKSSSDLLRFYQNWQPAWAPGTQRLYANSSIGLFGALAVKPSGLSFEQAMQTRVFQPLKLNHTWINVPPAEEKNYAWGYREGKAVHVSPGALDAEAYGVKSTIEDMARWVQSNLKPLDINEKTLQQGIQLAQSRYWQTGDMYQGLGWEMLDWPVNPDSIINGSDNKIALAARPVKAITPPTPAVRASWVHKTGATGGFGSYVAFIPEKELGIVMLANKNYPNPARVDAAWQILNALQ
Summary of the method: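 AmpC (5.3 nM in the dispensed reagent) in 20 mM phosphate pH 7.0 with 0.01% (detergent screen) or 0.0001% Triton X-100 was preincubated with compounds for 15 min at room temperature. Nitrocefin was then added from an 800 uM solution, and hydrolysis was followed at 480 nm.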
Potency is the fitted concentration of half-maximal effect; tags give direction and shape of the fitted curve.

Row | SMILES | Potency
1 | COc1ccc(C(=O)NC(=O)Nc2cc(C)ccn2)cc1 | inactive
2 | COc1ccccc1N1CCN(CCC(=O)Nc2ccc(F)cc2)CC1 | inconclusive [inhibitor, partial curve, poor fit]
3 | CCc1ccc(S(=O)(=O)c2nnn3c2nc(Nc2cc(OC)ccc2OC)c2sccc23)cc1 | inactive
4 | Cc1ccc(NS(=O)(=O)c2ccc3c(c2)NC(=O)CC(=O)N3)cc1C | inconclusive [inhibitor, full curve]
5 | C=CCC1(C#N)C(SC)=NC2=C(C(=O)CC(C)(C)C2)C1c1ccc(Br)cc1 (configuration not stated) | inactive
6 | COc1ccc(/C(C)=N/NC(=O)CNC(=O)Cc2ccccc2)c(OC)c1 | inconclusive [inhibitor, partial curve, poor fit]
7 | CCOC(=O)C1C(=O)CC(C)(O)C(C(=O)OCC)C1c1cccc(OC(F)(F)C(F)F)c1 (configuration not stated) | inconclusive [inhibitor, full curve]
8 | CCCc1cc(=O)[nH]c2nnc(SCC(=O)NC3CCCC3)n12 | inconclusive [inhibitor, full curve, poor fit]
9 | COc1ccc(CNC(=O)CNC(=O)c2sc3ccccc3c2Cl)cc1OC | inconclusive [inhibitor, full curve]
10 | Cc1cc(C(=O)C(C)Sc2cccc[n+]2[O-])c(C)n1-c1ccc(Cl)cc1 (configuration not stated) | inactive
11 | S=C(Nc1ccccc1)N1CCN(C2CCCCC2)CC1 | inconclusive [inhibitor, full curve]
12 | CC(C)c1nc2c([nH]1)c(=O)n(C)c(=O)n2C | inconclusive [inhibitor, full curve, poor fit]
13 | COc1ccccc1NC(=S)NC(=O)c1ccc(-c2ccc(Cl)cc2)o1 | inconclusive [inhibitor, partial curve]
14 | CC(C)CN(C(=O)Cn1c(=O)cnc2ccccc21)C1CCS(=O)(=O)C1 (configuration not stated) | inconclusive [inhibitor, full curve, poor fit]
15 | CC(NC(=O)CSc1n[nH]c(-c2ccccc2Cl)n1)c1nc2ccccc2[nH]1 (configuration not stated) | inactive
16 | O=C(Nc1ccc(NC(=O)c2cccs2)c(Cl)c1)c1cccs1 | inactive
17 | CCCCC(=O)OC1=C(C(=O)c2ccccc2)N(CCC)S(=O)(=O)c2ccccc21 | inactive
18 | O=C(COC(=O)c1ccccc1Cc1ccccc1)Nc1ccc(SC(F)F)cc1 | inactive
19 | N#C/C(=C\c1ccccc1)c1nc2ncccc2[nH]1 | inconclusive [inhibitor, full curve, poor fit]
20 | CCc1cc2c3c(c(=O)oc2cc1OCC(=O)OC)CCCC3 | inconclusive [inhibitor, full curve, poor fit]
21 | COc1cccc(/C=C/C(=O)OCC(=O)c2ccc(S(=O)(=O)N3CCCCC3)cc2)c1OC | inconclusive [inhibitor, full curve]
22 | CN(C)C(=O)Oc1cccc([N+](C)(C)C)c1 | inconclusive [inhibitor, partial curve]
23 | COc1ccc([C@@H]2[C@@H]3C(=O)N(C(C)(C)C)C(=O)[C@@H]3[C@]3(Cc4ccc(Cl)cc4)C(=O)N(c4cccc(Br)c4)C(=O)N23)cc1 | inconclusive [inhibitor, partial curve]

Row | SMILES | Potency
24 | CC(C)CC(=O)N1CCC(O)(CS(=O)(=O)c2ccc(Cl)c(Cl)c2)CC1 | inconclusive [inhibitor, full curve, poor fit]
25 | O=S(=O)(NCCc1csc(-c2ccccc2)n1)c1ccc2c(c1)OCCO2 | inconclusive [inhibitor, full curve, poor fit]
26 | CCOc1ccc(NC(=O)c2ccc3[nH]c(C)c(C)c3c2)cc1 | inconclusive [inhibitor, single point]
27 | CCn1c(SCC(=O)N2CCCCC2C)nc2ccsc2c1=O (configuration not stated) | inconclusive [inhibitor, full curve, poor fit]
28 | O=C(N/N=C/c1ccccc1)c1ccc(NC(=O)c2ccc(F)cc2)cc1 | inactive
29 | Cc1sc2ncnc(OCC(=O)N3CCN(S(=O)(=O)c4ccc(Cl)cc4)CC3)c2c1C | inactive
30 | CCCCC(=O)Nc1ccc2c(c1)nc(CN1CCN(C(=O)OCC)CC1)n2C | inactive
31 | CCOc1cc(C(=O)NCCc2sc(-c3ccc(F)cc3)nc2C)cc(OCC)c1OCC | inconclusive [inhibitor, partial curve, poor fit]
32 | O=C(NCc1ccco1)c1ccc(COCC(F)(F)F)cc1 | inconclusive [inhibitor, full curve, poor fit]
33 | COCCCn1c(SCC(=O)Nc2ccc(C(C)=O)cc2)nc2ccccc2c1=O | inconclusive [inhibitor, full curve, poor fit]
34 | O=[N+]([O-])c1c(C(Cl)Cl)nn(-c2ccc(Cl)cc2)c1N1CCCCC1 | inconclusive [inhibitor, partial curve, poor fit]
35 | CCc1ccccc1NC(=O)C(=O)NCCCN1CCOCC1 | inactive
36 | O=C(N/N=C\c1cc(Br)ccc1O)c1ccc(S(=O)(=O)N2CCCCC2)cc1 | inconclusive [inhibitor, partial curve, poor fit]
37 | COc1ccccc1-c1nnc(SCC(=O)N2CCCC2)o1 | inactive
38 | COc1ccc(C2C(C(C)=O)=C(C)N=c3s/c(=C/c4ccc5c(c4)OCO5)c(=O)n32)cc1 (configuration not stated) | inconclusive [inhibitor, full curve]
39 | O=C(O)c1cc([N+](=O)[O-])c(Nc2cccc3ccccc23)c([N+](=O)[O-])c1 | inconclusive [inhibitor, full curve, poor fit]
40 | CN(C)S(=O)(=O)c1cccc(COc2cccnc2[N+](=O)[O-])c1 | inconclusive [inhibitor, full curve, poor fit]
41 | COc1cc2c(cc1OC)C(COc1cccc(C(F)(F)F)c1)N(C(=O)c1ccc(S(=O)(=O)N3CCCC3)cc1)CC2 (configuration not stated) | inactive
42 | CN1CCC(OC(c2ccccc2)c2ccccc2)CC1 | inconclusive [inhibitor, partial curve, poor fit]
43 | CCCCSc1nnc(-c2ccc(OC)cc2)n1C | inconclusive [inhibitor, single point]
44 | COc1ccc(CNC(=O)C(C)OC(=O)Cn2cnc3c2c(=O)n(C)c(=O)n3C)cc1 (configuration not stated) | inactive
45 | CCOC(=O)C1CCN(C(=O)c2cccnc2)CC1 | inconclusive [inhibitor, full curve]
46 | Brc1ccc2nc(-c3c[nH]c4ccccc34)cn2c1 | inconclusive [inhibitor, full curve, poor fit]

Row | SMILES | Potency
47 | Cc1cc(C)c2c(=O)n(CC(=O)NCCCN3CCN(c4ccccc4F)CC3)sc2n1 | inconclusive [inhibitor, partial curve]
48 | CCc1cccc(NC(=O)CCS(=O)(=O)c2ccc(Br)cc2)c1 | inactive
49 | COC(OC)C1Nc2ccccc2C(=O)N1c1ccc(F)cc1 (configuration not stated) | inconclusive [inhibitor, full curve]
50 | CC(C)n1nnnc1SCC(=O)Nc1ccc2c(c1)OCCO2 | inconclusive [inhibitor, full curve]
51 | Cc1ccc(C(C)C)cc1S(=O)(=O)NC1CC(C)(C)NC(C)(C)C1 | inconclusive [inhibitor, full curve, poor fit]
52 | O=C1[C@@H]2CSC(c3ccc(Cl)cc3)N2C(=O)N1c1ccccc1 (some centres not stated) | inactive
53 | COc1ccc(-c2noc(COc3cc(C)ccc3C)n2)cc1OC | inactive
54 | O=C(/C=C/c1ccc(OC(F)F)cc1)Nc1cccc(S(=O)(=O)N2CCOCC2)c1 | inactive
55 | CCOC(=O)[C@@H]1[C@H]2COc3cc(OC)ccc3[C@@H]2N2C(=O)N(c3cccc(F)c3)C(=O)[C@@]12C | inconclusive [inhibitor, partial curve]
56 | O=C(COc1ccc(F)cc1)Nc1ccc2nc(SCC(=O)N3CCOCC3)sc2c1 | inactive
57 | Cc1ccc(NC2=C(Cl)C(=O)OC2OC(C)C)cc1 (configuration not stated) | inactive
58 | COc1ccc2c(c1)c(N1CCCC1=O)c(C(=O)Nc1ccccc1C(F)(F)F)n2C | inactive
59 | CCOC(=O)c1sc(NC(=O)CC2OC(=O)c3ccccc32)nc1C (configuration not stated) | inconclusive [inhibitor, single point]
60 | CNc1ncc(C(=O)c2ccc(Cl)c(Cl)c2)s1 | inactive
61 | O=C(NCN1C(=O)C2C3C=CC(C3)C2C1=O)Nc1nccs1 (configuration not stated) | inconclusive [inhibitor, partial curve, poor fit]
62 | CN1C(=O)C(=Cc2ccc(SC3CCCCC3)o2)C(=O)N(C)C1=O | inconclusive [inhibitor, single point]
63 | Cc1noc(C)c1S(=O)(=O)N1CCCC(C(=O)N2CCc3ccccc3C2)C1 (configuration not stated) | inconclusive [inhibitor, partial curve, poor fit]
64 | COc1ccc2cnn(-c3ccccc3C)c(=O)c2c1OC | inconclusive [inhibitor, single point]
65 | COC(=O)C1=C(c2cccc(OCc3ccccc3)c2)C[C@@H]2CC[C@H]1N2C(=O)NC1CCN(Cc2ccccc2)CC1 | inactive
66 | COc1ccc(OC)c(C2CC(=O)c3c([nH]c(C(=O)OC(C)C)c3C)C2)c1 (configuration not stated) | inconclusive [inhibitor, full curve, poor fit]
67 | O=C(Nc1ccc(C(F)(F)F)cc1)c1cc(-c2cccnc2)nc2ccc(Br)cc12 | inactive

Source: PubChem BioAssay AID485294 (National Center for Advancing Translational Sciences (NCATS), 2010)
